Here are results for 51 cell lines from the supplement of paper PMC4967469.

Lines with a small IC50 respond at low doses; a fit beyond the top or the lowest dose is shown as a bound at that dose. The AUC spans the tested range (256-fold, ending at the top dose) of the same fit; it is 1 without any effect and falls as sensitivity rises. Where the top dose is marked as inferred, it is not printed in the source and was worked back from the curve model.

Compound in the test: Cc1ccc(-c2c(C(=O)CF)n(CCCO)c3ncnc(N)c23)cc1 [FMK]
In words: Viability of human cancer cell lines after 72 h of drug (GDSC screen). The note with it: top dose inferred. The protocol:
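Human cancer cell lines in 384-well plates, medium with 10% serum, drug for 72 h over a 256-fold dose range (nine 2-fold or five 4-fold steps up to the top dose). Adherent lines were fixed and stained with the nucleic acid dye Syto60, suspension lines read with resazurin; signal relative to control wells, capped at 0 and 100%. One two-parameter sigmoid per drug and line, fitted in a mixed model over all curves with the slope shared within a line.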
Regarding “HO-1-N-1 (head and neck, adherent, top dose 20 µM)”, the AUC was found to be 0.986 and the IC50 (commonly the concentration needed to halve the response being measured) was more than 20 µM.

For the cell line “HO-1-u-1 (head and neck, adherent, top dose 20 µM)”, the AUC is 0.983 and the half-inhibitory concentration (IC50) was more than 20 µM.

As for “HOP-62 (lung adenocarcinoma, adherent, top dose 20 µM)”, the AUC was found to be 0.982 and the IC50 was more than 20 µM.

As to “HOP-92 (large cell lung carcinoma, adherent, top dose 10.24 µM)”, the AUC came out at 0.981 and the IC50 is more than 10.2 µM.

For the cell line “HOS (osteosarcoma, adherent, top dose 20 µM)”, the AUC was found to be 0.99 and the 50% inhibitory concentration (IC50) is more than 20 µM.

Regarding “HPAC (pancreas, adherent, top dose 20 µM)”, the AUC amounted to 0.951 and the IC50 was more than 20 µM.

In the case of “HPAF-II (pancreas, adherent, top dose 20 µM)”, the AUC is 0.948 and the half-maximal inhibitory concentration (IC50) was more than 20 µM.

As to “HSC-2 (head and neck, adherent, top dose 20 µM)”, the AUC worked out at 0.986 and the IC50 is more than 20 µM.

For the cell line “HSC-3 (head and neck, adherent, top dose 20 µM)”, the AUC amounted to 0.989 and the IC50 was more than 20 µM.

For “HSC-4 (head and neck, adherent, top dose 10.24 µM)”, the AUC amounted to 0.968 and the 50% inhibitory concentration (IC50) was more than 10.2 µM.

“HT55 (large intestine, adherent, top dose 20 µM)”: the AUC is 0.99 and the 50% inhibitory concentration (IC50) was more than 20 µM.

With “HT (B-cell lymphoma, suspension, top dose 20 µM)”, the AUC was determined as 0.99 and the IC50 was more than 20 µM.

Consider HT-3 (cervix, adherent, top dose 20 µM), for which the AUC was 0.985 and the IC50 was more than 20 µM.

In the case of “HT-29 (large intestine, adherent, top dose 20 µM)”, the AUC amounted to 0.981 and the half-inhibitory concentration (IC50) was more than 20 µM.

“HT-115 (large intestine, adherent, top dose 20 µM)”: the AUC amounted to 0.989 and the IC50 was more than 20 µM.

For “HT-144 (melanoma, adherent, top dose 20 µM)”, the AUC was determined as 0.982 and the IC50 was more than 20 µM.

For the cell line “HT-1080 (fibrosarcoma, adherent, top dose 20 µM)”, the AUC worked out at 0.984 and the IC50 is more than 20 µM.

Turning to “HT-1376 (bladder, adherent, top dose 20 µM)”, the AUC came out at 0.985 and the IC50 is more than 20 µM.

For the cell line “HUTU-80 (digestive system, adherent, top dose 20 µM)”, the AUC worked out at 0.982 and the IC50 is more than 20 µM.

HeLa (cervix, adherent, top dose 20 µM): the AUC was 0.986 and the IC50 was more than 20 µM.

In the case of “Hep 3B2_1-7 (liver, adherent, top dose 20 µM)”, the AUC is 0.985 and the IC50 is more than 20 µM.

For “Hs633T (fibrosarcoma, adherent, top dose 20 µM)”, the AUC amounted to 0.992 and the IC50 was more than 20 µM.

Take “Hs683 (glioma, adherent, top dose 20 µM)”: the AUC turned out to be 0.98 and the IC50 is more than 20 µM.

Regarding “Hs766T (pancreas, adherent, top dose 20 µM)”, the AUC is 0.984 and the IC50 was more than 20 µM.

As to “Hs939-T (melanoma, adherent, top dose 20 µM)”, the AUC came to 0.986 and the IC50 was more than 20 µM.

With “Hs-445 (Hodgkin lymphoma, suspension, top dose 20 µM)”, the AUC was found to be 0.965 and the IC50 is more than 20 µM.

In the case of “Hs-578-T (breast, adherent, top dose 20 µM)”, the AUC was 0.987 and the half-maximal inhibitory concentration (IC50) was more than 20 µM.

Regarding “HuCCT1 (biliary tract, adherent, top dose 20 µM)”, the AUC is 0.973 and the IC50 was more than 20 µM.

HuH-7 (liver, adherent, top dose 20 µM): the AUC is 0.986 and the half-maximal inhibitory concentration (IC50) was more than 20 µM.

Regarding “HuO9 (osteosarcoma, adherent, top dose 20 µM)”, the AUC stood at 0.963 and the IC50 is more than 20 µM.

Regarding “HuO-3N1 (osteosarcoma, adherent, top dose 20 µM)”, the AUC is 0.974 and the IC50 was more than 20 µM.

Turning to “HuP-T3 (pancreas, adherent, top dose 20 µM)”, the AUC turned out to be 0.939 and the half-maximal inhibitory concentration (IC50) is more than 20 µM.

As for “HuP-T4 (pancreas, adherent, top dose 20 µM)”, the AUC is 0.981 and the IC50 is more than 20 µM.

In the case of “IA-LM (large cell lung carcinoma, adherent, top dose 20 µM)”, the AUC amounted to 0.985 and the 50% inhibitory concentration (IC50) is more than 20 µM.

As to “IGR-1 (melanoma, adherent, top dose 20 µM)”, the AUC is 0.979 and the IC50 was more than 20 µM.

Regarding “IGR-37 (melanoma, adherent, top dose 20 µM)”, the AUC turned out to be 0.987 and the IC50 is more than 20 µM.

For the cell line “IHH-4 (thyroid, semi-adherent, top dose 20 µM)”, the AUC came out at 0.993 and the IC50 was more than 20 µM.

Regarding “IM-95 (stomach, adherent, top dose 20 µM)”, the AUC was 0.958 and the IC50 was more than 20 µM.

Turning to “IPC-298 (melanoma, adherent, top dose 20 µM)”, the AUC is 0.982 and the IC50 was more than 20 µM.

For the cell line “IST-MEL1 (melanoma, adherent, top dose 20 µM)”, the AUC was determined as 0.948 and the IC50 was more than 20 µM.

In the case of “IST-SL1 (small cell lung carcinoma, semi-adherent, top dose 20 µM)”, the AUC is 0.971 and the half-maximal inhibitory concentration (IC50) is more than 20 µM.

On to “IST-SL2 (small cell lung carcinoma, suspension, top dose 20 µM)”, for which the AUC came out at 0.984 and the IC50 was more than 20 µM.

With J82 (bladder, adherent, top dose 20 µM), the AUC is 0.979 and the IC50 is more than 20 µM.

With “JEG-3 (urogenital system, adherent, top dose 20 µM)”, the AUC is 0.991 and the IC50 is more than 20 µM.

Regarding “JHH-1 (liver, adherent, top dose 10.24 µM)”, the AUC was 0.95 and the IC50 was more than 10.2 µM.

“JHH-2 (liver, adherent, top dose 10.24 µM)”: the AUC was 0.985 and the half-maximal inhibitory concentration (IC50) is more than 10.2 µM.

Consider JHH-4 (liver, adherent, top dose 20 µM), for which the AUC worked out at 0.913 and the IC50 was more than 20 µM.

On to JHH-6 (liver, adherent, top dose 20 µM), for which the AUC turned out to be 0.987 and the IC50 is more than 20 µM.

Take “JHH-7 (liver, adherent, top dose 10.24 µM)”: the AUC came to 0.989 and the half-inhibitory concentration (IC50) was more than 10.2 µM.

“JHU-011 (head and neck, adherent, top dose 20 µM)”: the AUC worked out at 0.952 and the concentration for half-maximal inhibition (IC50) is more than 20 µM.

In the case of “JHU-022 (head and neck, adherent, top dose 20 µM)”, the AUC was 0.948 and the concentration for half-maximal inhibition (IC50) is more than 20 µM.
